Lines with a small IC50 respond at low doses; fits outside the tested doses are given as limits. AUC sums up the same curve from the lowest dose to the 256-fold higher top dose: 1 means no effect, lower means more sensitive. Where the top dose is marked as inferred, it was derived from the fitted curves, not read from the paper. For part of these data: Where an entry number is given, a second screen of the drug exists; the two often differ.
How the values were obtained:
Experiment in all cases: Viability of human cancer cell lines after 72 h of drug (GDSC screen)
[1] = compound: CC(C)=CC[C@@H](O)C1=CC(=O)c2c(O)ccc(O)c2C1=O [Shikonin]; details: top dose 16 µM; top dose inferred
Protocol: (§1)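 Human cancer cell lines in 384-well plates, medium with 10% serum, drug for 72 h over a 256-fold dose range (nine 2-fold or five 4-fold steps up to the top dose). Adherent lines were fixed and stained with the nucleic acid dye Syto60, suspension lines read with resazurin; signal relative to control wells, capped at 0 and 100%. One two-parameter sigmoid per drug and line, fitted in a mixed model over all curves with the slope shared within a line.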

[2] = compound: CCNc1cc(NC2CCC(O)CC2)nc(Nc2ccc3c(ccn3Cc3ccccc3)c2)n1 [CGP-082996 (CINK4)]; details: top dose 5.12 µM; top dose inferred
Protocol: as §1

[3] = compound: CNC(=O)c1ccc(Nc2cc(Nc3ccccc3S(=O)(=O)C(C)C)c3cc[nH]c3n2)nc1 [HG-5-113-01]; details: top dose 10 µM; top dose inferred
Protocol: as §1

[4] = compound: COc1cc(-c2nn([C@H]3CC[C@H](N4CCN(C(C)=O)CC4)CC3)c3ncnc(N)c23)ccc1NC(=O)c1cc2ccccc2n1C [A-770041]; details: top dose 5.12 µM; top dose inferred
Protocol: as §1

[5] = compound: COc1cc(N2CCN(C)CC2)ccc1Nc1ncc2c(n1)N(C)c1ccccc1C(=O)N2C [XMD8-85]; details: top dose 8 µM; top dose inferred
Protocol: as §1

[6] = compound: Cc1cc(N2CCOCC2)cc2[nH]c(-c3c(NC[C@@H](O)c4cccc(Cl)c4)cc[nH]c3=O)nc12 [BMS-536924]
Protocol: as §1

[7] = compound: Cc1ccc(-n2nc(C(C)(C)C)cc2NC(=O)Nc2ccc(OCCN3CCOCC3)c3ccccc23)cc1 [BIRB 0796]; details: top dose 10 µM; top dose inferred
Protocol: as §1

[8] = compound: Cc1cccc(-c2[nH]c(C(C)(C)C)nc2-c2ccc3nccnc3c2)n1 [SB-525334]; details: top dose 20 µM; top dose inferred
Protocol: as §1

[9] = compound: NC(=O)c1ccc(N(C(N)=O)c2c(F)cccc2F)nc1-c1ccc(F)cc1F [VX-702]; details: top dose 2 µM; top dose inferred
Protocol: as §1

[10] = compound: O=C(c1cc(Cc2n[nH]c(=O)c3ccccc23)ccc1F)N1CCN(C(=O)C2CC2)CC1 [Olaparib]
Protocol: as §1

[11] = compound: O=C1NC(=O)c2c1c(-c1ccccc1Cl)cc1[nH]c3ccc(O)cc3c21 [Wee1 inhibitor 681640]; details: top dose 2 µM; top dose inferred
Protocol: as §1

[12] = top dose 4 µM, screen: GDSC drug entry 1091, top dose inferred
[13] = top dose 5.12 µM, screen: GDSC drug entry 62
[14] = top dose 5 µM, screen: GDSC drug entry 1017, top dose inferred
[15] = top dose 10 µM, screen: GDSC drug entry 1495

Row | Cell Line | AUC [1] | IC50 [1] [µM] | AUC [2] | IC50 [2] [µM] | AUC [3] | IC50 [3] [µM] | AUC [4] | IC50 [4] [µM] | AUC [5] | IC50 [5] [µM] | AUC [6, 12] | IC50 [6, 12] [µM] | AUC [6, 13] | IC50 [6, 13] [µM] | AUC [7] | IC50 [7] [µM] | AUC [8] | IC50 [8] [µM] | AUC [9] | IC50 [9] [µM] | AUC [10, 14] | IC50 [10, 14] [µM] | AUC [10, 15] | IC50 [10, 15] [µM] | AUC [11] | IC50 [11] [µM]
1 | RL (B-cell lymphoma, suspension) | 0.826 | 8.64 | 0.942 | > 5.12 | 0.793 | 4.14 | 0.976 | > 5.12 | 0.695 | 1.67 | 0.948 | > 4 | 0.986 | > 5.12 | 0.988 | > 10 | 0.906 | > 20 | 0.99 | > 2 | 0.99 | > 5 | 0.989 | > 10 | 0.99 | > 2
2 | RPMI-8402 (T-cell lymphoblastic leukaemia, suspension) | 0.53 | 1.19 | 0.807 | 2.14 | 0.748 | 2.78 | 0.918 | > 5.12 | 0.85 | 4.65 | 0.986 | > 4 | 0.952 | > 5.12 | 0.991 | > 10 | 0.965 | > 20 | 0.99 | > 2 | 0.989 | > 5 | 0.932 | > 10 | 0.99 | > 2
3 | RPMI-8866 (chronic myeloid leukaemia, suspension) | 0.46 | 0.784 | 0.988 | > 5.12 | 0.739 | 2.83 | 0.988 | > 5.12 | 0.959 | > 8 | 0.852 | 2.75 | 0.987 | > 5.12 | 0.988 | > 10 | 0.828 | 11.2 | 0.873 | 1.69 | 0.81 | 2.4 | 0.963 | > 10 | 0.875 | 1.73
4 | RXF393 (kidney, adherent) | 0.466 | 0.78 | 0.954 | > 5.12 | 0.819 | 8.81 | 0.633 | 0.859 | 0.915 | > 8 | 0.896 | > 4 | 0.701 | 1.48 | 0.934 | > 10 | 0.888 | > 20 | 0.968 | > 2 | 0.918 | > 5 | 0.934 | > 10 | 0.952 | > 2
5 | SBC-1 (small cell lung carcinoma, suspension) | 0.899 | > 16 | 0.989 | > 5.12 | 0.77 | 3.68 | 0.986 | > 5.12 | 0.942 | > 8 | 0.943 | > 4 | 0.983 | > 5.12 | 0.987 | > 10 | 0.97 | > 20 | 0.988 | > 2 | 0.987 | > 5 | 0.925 | > 10 | 0.989 | > 2
6 | SF126 (glioma, adherent) | 0.458 | 0.765 | 0.957 | > 5.12 | 0.786 | 4.58 | 0.87 | > 5.12 | 0.89 | > 8 | 0.965 | > 4 | 0.803 | 2.71 | 0.802 | 5.24 | 0.916 | > 20 | 0.985 | > 2 | 0.984 | > 5 | 0.937 | > 10 | 0.984 | > 2
7 | SF268 (glioma, adherent) | 0.678 | 3.29 | 0.927 | > 5.12 | 0.78 | 4.43 | 0.816 | 3.12 | 0.862 | 7.71 | 0.968 | > 4 | 0.821 | 3.27 | 0.852 | 8.65 | 0.908 | > 20 | 0.985 | > 2 | 0.984 | > 5 | 0.925 | > 10 | 0.965 | > 2
8 | SH-4 (melanoma, adherent) | 0.379 | 0.387 | 0.778 | 3.39 | 0.685 | 2.76 | 0.638 | 0.949 | 0.696 | 2.44 | 0.647 | 0.8 | 0.626 | 0.863 | 0.968 | > 10 | 0.895 | > 20 | 0.968 | > 2 | 0.974 | > 5 | 0.928 | > 10 | 0.868 | > 2
9 | SIMA (neuroblastoma, adherent) | 0.684 | 3.51 | 0.939 | > 5.12 | 0.795 | 5.34 | 0.876 | > 5.12 | 0.978 | > 8 | 0.838 | 3.24 | 0.922 | > 5.12 | 0.895 | > 10 | 0.841 | 16.6 | 0.985 | > 2 | 0.985 | > 5 | 0.947 | > 10 | 0.985 | > 2
10 | SJSA-1 (bone, adherent) | 0.673 | 3.25 | 0.966 | > 5.12 | 0.854 | 9.57 | 0.945 | > 5.12 | 0.834 | 6.17 | 0.957 | > 4 | 0.578 | 0.537 | 0.896 | > 10 | 0.955 | > 20 | 0.956 | > 2 | 0.984 | > 5 | 0.956 | > 10 | 0.916 | > 2
11 | SK-LMS-1 (soft tissue, adherent) | 0.191 | 0.127 | 0.968 | > 5.12 | 0.715 | 2.45 | 0.883 | 5.01 | 0.917 | > 8 | 0.888 | > 4 | 0.841 | 3.3 | 0.818 | 5.28 | 0.894 | > 20 | 0.961 | > 2 | 0.976 | > 5 | 0.921 | > 10 | 0.916 | > 2
12 | SK-MEL-1 (melanoma, suspension) | 0.754 | 4.74 | 0.948 | > 5.12 | 0.91 | > 10 | 0.964 | > 5.12 | 0.969 | > 8 | 0.993 | > 4 | 0.948 | > 5.12 | 0.993 | > 10 | 0.982 | > 20 | 0.993 | > 2 | 0.993 | > 5 | 0.992 | > 10 | 0.993 | > 2
13 | SK-MEL-2 (melanoma, adherent) | 0.648 | 2.61 | 0.98 | > 5.12 | 0.617 | 1.33 | 0.972 | > 5.12 | 0.983 | > 8 | 0.91 | > 4 | 0.912 | > 5.12 | 0.901 | > 10 | 0.985 | > 20 | 0.984 | > 2 | 0.982 | > 5 | 0.946 | > 10 | 0.959 | > 2
14 | SK-MM-2 (myeloma, suspension) | 0.379 | 0.458 | 0.974 | > 5.12 | 0.807 | 5.41 | 0.969 | > 5.12 | 0.755 | 2.82 | 0.735 | 1.21 | 0.613 | 0.665 | 0.987 | > 10 | 0.744 | 6.47 | 0.986 | > 2 | 0.987 | > 5 | 0.983 | > 10 | 0.987 | > 2
15 | SK-PN-DW (Ewing sarcoma, adherent) | 0.221 | 0.147 | 0.983 | > 5.12 | 0.732 | 2.94 | 0.986 | > 5.12 | 0.913 | > 8 | 0.882 | > 4 | 0.779 | 2.17 | 0.979 | > 10 | 0.931 | > 20 | 0.9 | > 2 | 0.872 | > 5 | 0.942 | > 10 | 0.949 | > 2
16 | SLVL (B-cell lymphoma, suspension) | 0.409 | 0.554 | 0.961 | > 5.12 | 0.836 | 7.22 | 0.772 | 2.1 | 0.864 | 7.66 | 0.942 | > 4 | 0.894 | > 5.12 | 0.981 | > 10 | 0.874 | > 20 | 0.972 | > 2 | 0.977 | > 5 | 0.966 | > 10 | 0.974 | > 2
17 | SNB75 (glioma, adherent) | 0.516 | 1.13 | 0.861 | > 5.12 | 0.811 | 8.68 | 0.524 | 0.383 | 0.795 | 5.85 | 0.953 | > 4 | 0.724 | 1.89 | 0.967 | > 10 | 0.975 | > 20 | 0.979 | > 2 | 0.977 | > 5 | 0.959 | > 10 | 0.973 | > 2
18 | SR (lymphoid neoplasm, suspension) | 0.194 | 0.139 | 0.871 | 4 | 0.236 | 0.118 | 0.863 | 3.71 | 0.859 | 5.6 | 0.826 | 2.1 | 0.801 | 2.21 | 0.987 | > 10 | 0.973 | > 20 | 0.974 | > 2 | 0.952 | > 5 | 0.954 | > 10 | 0.859 | 1.4
19 | SW684 (fibrosarcoma, adherent) | 0.51 | 1.08 | 0.981 | > 5.12 | 0.924 | > 10 | 0.892 | > 5.12 | 0.972 | > 8 | 0.977 | > 4 | 0.969 | > 5.12 | 0.981 | > 10 | 0.983 | > 20 | 0.98 | > 2 | 0.982 | > 5 | 0.977 | > 10 | 0.974 | > 2
20 | TE-1 (oesophagus, adherent) | 0.716 | 4.86 | 0.908 | > 5.12 | 0.722 | 3.21 | 0.687 | 1.24 | 0.874 | > 8 | 0.858 | > 4 | 0.62 | – | 0.982 | > 10 | 0.978 | > 20 | 0.974 | > 2 | 0.979 | > 5 | 0.978 | > 10 | 0.922 | > 2
